Measurements: the supplement of paper PMC12217912
The list shows a part of the results. The full chains were built here from the parent and the listed change. Inactive controls read about 0.05.

B1: TEV protease; numbered along this chain (parent)
chain: MGESLFKGPRDYNPISSSICHLTNESDGHTTSLYGIGFGPFIITNKHLFRRNNGTLVVQSLHGVFKVKDTTTLQQHLVDGRDMIIIRMPKDFPPFPQKLKFREPQREERICLVTTNFQTKSMSSMVSDTSCTFPSGDGIFWKHWIQTKDGQCGSPLVSTRDGFIVGIHSASNFTNTNNYFTSVPKNFMELLTNQEAQQWVSGWRLNADSVLWGGHKVFMVKPEEPFQPVKEATQL

Variants of: B1
Test: raw area under fraction-flipped curve 0-4 h after induction (AUC4h, not background-subtracted), DNA-recorder readout of cleavage of the substrate (dimensionless); higher = more cleavage of the substrate by the protease variant
Conditions: temperature: 34 °C; time window: 0-4 h after rhamnose induction
Experimental: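 In vivo DNA recorder in E. coli TOP10(DE3) ΔrhaA at 34 °C. Each TEVp single-site mutant (parent TEVp 0) is paired with a single-site variant of the 7-mer TEVs (canonical ENLYFQ|S). The substrate sits between flexible linkers in a Bxb1-sfGFP-TEVs-SsrA fusion, so cleavage stabilises Bxb1 and speeds flipping of a recombination array, read by NGS. The value is the raw area under the fraction-flipped curve over 0-4 h after rhamnose induction (AUC4h), with ≥20 reads per time point. It is not background-subtracted; inactive controls average about 0.047.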
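Further: Bxb1 expression induced with 0.2% (w/v) L-rhamnose at OD600 near 0.5, cultures sampled hourly, flipped fraction per protease–substrate barcode pair counted by paired-end Illumina sequencing.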

Variant	area with substrate ENLYCQS	area with substrate ENLYDQS	area with substrate ENLYEQS	area with substrate ENLYGQS	area with substrate ENLYHQS	area with substrate ENLYIQS	area with substrate ENLYKQS	area with substrate ENLYMQS	area with substrate ENLYNQS	area with substrate ENLYPQS	area with substrate ENLYQQS	area with substrate ENLYRQS	area with substrate ENLYSQS	area with substrate ENLYTQS	area with substrate ENLYVQS	area with substrate ENLYWQS	area with substrate ENLYYQS	area with substrate ENLYLQS
MGESLFKGPRDYGPISSSICHLTNESDGHTTSLYGIGFGPFIITNKHLFRRNNGTLVVQSLHGVFKVKDTTTLQQHLVDGRDMIIIRMPKDFPPFPQKLKFREPQREERICLVTTNFQTKSMSSMVSDTSCTFPSGDGIFWKHWIQTKDGQCGSPLVSTRDGFIVGIHSASNFTNTNNYFTSVPKNFMELLTNQEAQQWVSGWRLNADSVLWGGHKVFMVKPEEPFQPVKEATQL [N13G]	0.0761	0.054	0.0652	0.0572	0.0656	0.112	0.0622	0.0636	0.0654	0.0703	0.0611	0.0527	0.0618	0.0594	0.107	0.0775	0.0607	
MGESLFKGPRDYKPISSSICHLTNESDGHTTSLYGIGFGPFIITNKHLFRRNNGTLVVQSLHGVFKVKDTTTLQQHLVDGRDMIIIRMPKDFPPFPQKLKFREPQREERICLVTTNFQTKSMSSMVSDTSCTFPSGDGIFWKHWIQTKDGQCGSPLVSTRDGFIVGIHSASNFTNTNNYFTSVPKNFMELLTNQEAQQWVSGWRLNADSVLWGGHKVFMVKPEEPFQPVKEATQL [N13K]	0.0916	0.0576	0.0662	0.0686	0.0767	0.128	0.0642	0.0698		0.0791	0.0652	0.0666	0.0734	0.0646		0.0674		
MGESLFKGPRDYNPISSSICWLTNESDGHTTSLYGIGFGPFIITNKHLFRRNNGTLVVQSLHGVFKVKDTTTLQQHLVDGRDMIIIRMPKDFPPFPQKLKFREPQREERICLVTTNFQTKSMSSMVSDTSCTFPSGDGIFWKHWIQTKDGQCGSPLVSTRDGFIVGIHSASNFTNTNNYFTSVPKNFMELLTNQEAQQWVSGWRLNADSVLWGGHKVFMVKPEEPFQPVKEATQL [H21W]	0.125		0.0637	0.103	0.0622	0.184		0.0625	0.0686	0.0643	0.0728	0.0521	0.0845		0.124		0.0662	
MGESLFKGPRDYNPISSSICYLTNESDGHTTSLYGIGFGPFIITNKHLFRRNNGTLVVQSLHGVFKVKDTTTLQQHLVDGRDMIIIRMPKDFPPFPQKLKFREPQREERICLVTTNFQTKSMSSMVSDTSCTFPSGDGIFWKHWIQTKDGQCGSPLVSTRDGFIVGIHSASNFTNTNNYFTSVPKNFMELLTNQEAQQWVSGWRLNADSVLWGGHKVFMVKPEEPFQPVKEATQL [H21Y]	0.0733	0.068	0.0527	0.0679	0.0657	0.11	0.0365	0.0808				0.0668	0.0735		0.109	0.0713	0.0499	
MGESLFKGPRDYNPISSSICHLINESDGHTTSLYGIGFGPFIITNKHLFRRNNGTLVVQSLHGVFKVKDTTTLQQHLVDGRDMIIIRMPKDFPPFPQKLKFREPQREERICLVTTNFQTKSMSSMVSDTSCTFPSGDGIFWKHWIQTKDGQCGSPLVSTRDGFIVGIHSASNFTNTNNYFTSVPKNFMELLTNQEAQQWVSGWRLNADSVLWGGHKVFMVKPEEPFQPVKEATQL [T23I]	0.054	0.0548	0.0591	0.0629		0.128	0.0608	0.0762	0.0719	0.0718		0.065	0.08			0.0646	0.0639	
MGESLFKGPRDYNPISSSICHLRNESDGHTTSLYGIGFGPFIITNKHLFRRNNGTLVVQSLHGVFKVKDTTTLQQHLVDGRDMIIIRMPKDFPPFPQKLKFREPQREERICLVTTNFQTKSMSSMVSDTSCTFPSGDGIFWKHWIQTKDGQCGSPLVSTRDGFIVGIHSASNFTNTNNYFTSVPKNFMELLTNQEAQQWVSGWRLNADSVLWGGHKVFMVKPEEPFQPVKEATQL [T23R]	0.135	0.0592	0.0629	0.064	0.0572	0.103	0.063		0.0759	0.08	0.0609	0.056	0.0832	0.0806	0.113	0.0781	0.0659	
MGESLFKGPRDYNPISSSICHLTNESQGHTTSLYGIGFGPFIITNKHLFRRNNGTLVVQSLHGVFKVKDTTTLQQHLVDGRDMIIIRMPKDFPPFPQKLKFREPQREERICLVTTNFQTKSMSSMVSDTSCTFPSGDGIFWKHWIQTKDGQCGSPLVSTRDGFIVGIHSASNFTNTNNYFTSVPKNFMELLTNQEAQQWVSGWRLNADSVLWGGHKVFMVKPEEPFQPVKEATQL [D27Q]	0.0798		0.0642	0.0577	0.0707	0.121	0.0766	0.0796	0.0706	0.0744	0.0444		0.0738	0.107			0.0611	0.098
MGESLFKGPRDYNPISSSICHLTNESDGHWTSLYGIGFGPFIITNKHLFRRNNGTLVVQSLHGVFKVKDTTTLQQHLVDGRDMIIIRMPKDFPPFPQKLKFREPQREERICLVTTNFQTKSMSSMVSDTSCTFPSGDGIFWKHWIQTKDGQCGSPLVSTRDGFIVGIHSASNFTNTNNYFTSVPKNFMELLTNQEAQQWVSGWRLNADSVLWGGHKVFMVKPEEPFQPVKEATQL [T30W]	0.0943	0.0565	0.0718	0.0804			0.0498		0.0747	0.0951	0.0606	0.0831	0.0611		0.146	0.0986		0.0913
MGESLFKGPRDYNPISSSICHLTNESDGHTTSLYGIGPGPFIITNKHLFRRNNGTLVVQSLHGVFKVKDTTTLQQHLVDGRDMIIIRMPKDFPPFPQKLKFREPQREERICLVTTNFQTKSMSSMVSDTSCTFPSGDGIFWKHWIQTKDGQCGSPLVSTRDGFIVGIHSASNFTNTNNYFTSVPKNFMELLTNQEAQQWVSGWRLNADSVLWGGHKVFMVKPEEPFQPVKEATQL [F38P]	0.0242		0.0427	0.0869		0.0439	0.0441	0.04	0.0465	0.0565	0.0422	0.039	0.0309	0.0489	0.0379	0.0396	0.0384	
